# Some of the results follow. These are further read-outs of the screen, such as a control signal, another cell line or another target. No call is given for them.
# Tests used:
# Test in all cases: Primary Screen for Target Class Profiling of Small Molecule Inhibitors of Methyltransferases
# [1] = biological target: Glycine N-methyltransferase (Homo sapiens) (UniProt Q14749); conditions: purified enzyme, MTase-Glo SAH luminescence; measured here: GNMT inhibition; at 40 µM; stronger effect = lower value
# How it was run: (§1)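 Each enzyme was reacted with SAM and its substrate, with compounds tested once at 40 uM; SAH formed was read by MTase-Glo luminescence.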
# [2] = biological target: Guanidinoacetate N-methyltransferase (Homo sapiens) (UniProt Q14353); conditions: purified enzyme, MTase-Glo SAH luminescence; measured here: GAMT inhibition; at 40 µM; stronger effect = lower value
# How it was run: as §1
# [3] = biological target: Histamine N-methyltransferase (Homo sapiens) (UniProt P50135); conditions: purified enzyme, MTase-Glo SAH luminescence; measured here: HNMT inhibition; at 40 µM; stronger effect = lower value
# How it was run: as §1
# [4] = biological target: Nicotinamide N-methyltransferase (Homo sapiens) (UniProt P40261); conditions: purified enzyme, MTase-Glo SAH luminescence; measured here: NNMT inhibition; at 40 µM; stronger effect = lower value
# How it was run: as §1
# [5] = biological target: Phenylethanolamine N-methyltransferase (Homo sapiens) (UniProt P11086); conditions: purified enzyme, MTase-Glo SAH luminescence; measured here: PNMT inhibition; at 40 µM; stronger effect = lower value
# How it was run: as §1
# % is scaled to controls: 0 for no effect and ±100 for the full control effect.
SMILES,"activity change, negative = inhibition [1] [%]","activity change, negative = inhibition [2] [%]","activity change, negative = inhibition [3] [%]","activity change, negative = inhibition [4] [%]","activity change, negative = inhibition [5] [%]"
CC(=O)O[C@@H]1C[C@@]2(C)C(CC[C@]3(C)C2CC=C2C4CC(C)(C)CC[C@]4(C(=O)O)CC[C@]23C)C(C)(C)[C@H]1O (stereo not given in full),-1.66,-5.7,4.46,-24.5,-9.14
COc1ccccc1CC(=O)N1CCCc2ncc(C(=O)Nc3cccc(Cl)c3)cc21,-5.66,0.1,-73.4,-5.99,-6.26
CC(C)CNC(=O)c1ccc2c(=O)n(C)c3nn(CC(=O)NCc4ccc(Cl)cc4)c(=O)n3c2c1,4.69,0.723,7.74,6.55,5.19
CCOC(=O)C1CCN(S(=O)(=O)c2ccc3[nH]c(=O)[nH]c3c2)CC1,12.1,1.86,9.43,7.26,5.57
CCCn1c(=O)c2ccc(C(=O)NC(C)CC)cc2n2c(SCC(=O)c3ccc(OC)cc3)nnc12 (stereo not given),2.45,0,0.831,-1.27,3.37
O=C(O)Cc1ccc2oc(-c3ccc(NC(=O)/C=C/c4ccc(Br)cc4)c(F)c3)nc2c1,7.49,7.19,5.81,-6.83,3.56
c1cc(OCCCN2CCCCC2)ccc1CN1CCCCC1,-3.22,-13.5,-66.3,-21.4,-3.92
O=C1c2cc(N3CCOCC3)nc(-c3cccc(CO)c3)c2CN1c1ccccc1,-6.73,0.097,-0.216,-5.15,-0.892
CCn1c(=O)[nH]c2cc(Cl)c(Cl)cc21,-10.2,9.49,3.18,-7.21,4.53
CCCCNC(=O)c1cc2n(n1)CC(C)(C(=O)NCc1ccc(F)cc1)N(C)C2=O (stereo not given),1.89,4.09,-1.53,1.06,-1.82
CN1CCN(CCCNC(=O)C2(CCO)CCN(Cc3ccccc3)C2)CC1 (stereo not given),-2.69,-0.965,-0.758,3.8,2.27
COc1ncccc1-c1n[nH]c2c1CC(=O)N(Cc1ccccc1)C2,-8.68,-10.7,-3.72,-17.9,-6.55
O=C(NC1CC1)[C@@H]1CN(CCCc2ccccc2)C[C@H]1CO,-10.4,-4.85,-8.49,-6.93,-10.6
CC1CCCCC1NC(=O)C1(C)Cn2c(cc3sccc32)C(=O)N1Cc1ccc(Cl)cc1 (stereo not given),4.58,-33,6.96,1.14,1.49
Cc1oc(-c2ccccc2)nc1CN1CCCC(C(=O)N2CCC(c3nc(C(=O)N4CCCC4)c(C)o3)CC2)C1 (stereo not given),-10.8,-6.71,-9.51,-19.4,-6.77
COCc1nc(CCNS(=O)(=O)c2cccc(OC)c2)no1,-2.22,0.796,0.33,0.399,3.28
O=C(O)c1ccnc2cc(C(OCC3CCC(F)(F)CC3)c3ccccc3Cl)[nH]c12 (stereo not given),2.94,5.47,4.93,-16.9,-1.37

# — PubChem BioAssay AID1745853 (National Center for Advancing Translational Sciences (NCATS), 2022)
